Measured values: paper PMC7819943, “Rice protein-binding microarrays: a tool to detect cis-acting elements near promoter regions in rice”
The other results are listed elsewhere or left out.

molecular target: T1, OsWOX13 (Oryza sativa, UniProt Q5QMM3 1-267); assay: protein-binding microarray (RPBM); PBS, 2% BSA, 51.3 ng/ul salmon testes DNA, 50 uM zinc acetate, 200 nM TF, 25 C, 1 h; high values mean tight binding; conditions: protein: recombinant; tags: N-terminal polyhistidine and DsRed monomer fusion (pET32a); label: CyDye5-dUTP incorporated in the synthesized complementary strand; 3' TTTTT single-stranded linker to array surface; dsDNA, one strand shown
T1 sequence: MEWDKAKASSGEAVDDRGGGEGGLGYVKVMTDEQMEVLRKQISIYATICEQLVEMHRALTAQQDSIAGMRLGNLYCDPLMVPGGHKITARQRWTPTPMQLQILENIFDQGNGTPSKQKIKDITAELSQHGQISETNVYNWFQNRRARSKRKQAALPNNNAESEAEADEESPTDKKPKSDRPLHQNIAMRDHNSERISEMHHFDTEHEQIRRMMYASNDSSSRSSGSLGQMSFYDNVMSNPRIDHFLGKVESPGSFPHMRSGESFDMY
Outline: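 Binding signal here means per-feature fluorescence intensity in arbitrary units. The values were read on an Axon 4000B scanner after a custom Agilent array, double-stranded by primer extension with Cy5-dUTP, was incubated with 200 nM protein at 25 °C for 1 h in PBS with 2% BSA, salmon testes DNA and 50 µM zinc acetate, then washed. The proteins were transcription factors with an N-terminal polyhistidine tag and DsRed, expressed in E. coli BL21-CodonPlus and purified on Ni–NTA.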

Sequence	binding signal
CCTAATTAATCCGTCATTAGCAAATGTGGGTTACTGTAGCCGGAGTCACCTAGTGCAG	35500 fluorescence intensity (a.u.)
ATAAGTTTCCATCGGCTGATTGCGTTCTTTCCTTAACTGACGGAGTCACCTAGTGCAG	4330 fluorescence intensity (a.u.)
CATGGACGATCAAATTTAAACACGAAAATTTATGGTTGCACGGAGTCACCTAGTGCAG	3630 fluorescence intensity (a.u.)
TGTTGACAATAATTGTTGACATTGTCGATGAGACGAGAGACGGAGTCACCTAGTGCAG	26000 fluorescence intensity (a.u.)
GTTGTTAATGTACATCCATCATGATTTCCAATTCAGTTTCCGGAGTCACCTAGTGCAG	10500 fluorescence intensity (a.u.)
CAACAAGATTGTTGTCGGACTAATGCCTCACTGCTTGGTCCGGAGTCACCTAGTGCAG	3540 fluorescence intensity (a.u.)
ATCAAATTTTGTGATGAGCAGAGCAGTCACTGCCGTGCTACGGAGTCACCTAGTGCAG	6810 fluorescence intensity (a.u.)
TTTAAACAGATCCCGTCCATTCCAATTGTAGCGAACCGGTCGGAGTCACCTAGTGCAG	7440 fluorescence intensity (a.u.)
TGATGGAATTAGAATATTAATAATTAACATAGGGTGCAATCGGAGTCACCTAGTGCAG	8280 fluorescence intensity (a.u.)
GTCAGATTGATAACGCATGCAATGGCCGTTGGATCGCTGCCGGAGTCACCTAGTGCAG	45700 fluorescence intensity (a.u.)
TTGTGAAGGTAATTAAAGGAATTTATCAATTGTGTTGACGCGGAGTCACCTAGTGCAG	5510 fluorescence intensity (a.u.)
CACTAATCACTAATCACTCACTCACTCTCACTCTCGCTCCCGGAGTCACCTAGTGCAG	30400 fluorescence intensity (a.u.)
ATTGAATAATCAAAATTTCAATCTTTGATCGATGAGGTATCGGAGTCACCTAGTGCAG	12100 fluorescence intensity (a.u.)
CAACCTTAAATTACCAAATCTGGTTGCACGAAAATATAAGCGGAGTCACCTAGTGCAG	3920 fluorescence intensity (a.u.)
AGATCGAATCAATCATACAGGAAAGGTGCCTAACGAACCCCGGAGTCACCTAGTGCAG	5510 fluorescence intensity (a.u.)
TGTCACATCAATCATCTCCAATTTAGGGCTTATTCGGAATCGGAGTCACCTAGTGCAG	31000 fluorescence intensity (a.u.)
GTTAAACTTGGTTAATTGTGGTGTGTATAATTTGTTAGGTCGGAGTCACCTAGTGCAG	14300 fluorescence intensity (a.u.)
ATGATTTGATGAAGAGGCCGGCTGTGAAGAGGGTGAGAGACGGAGTCACCTAGTGCAG	12700 fluorescence intensity (a.u.)
GCCTACAATTAATAGATCTGTTTATTTAATGGAGTAGACGCGGAGTCACCTAGTGCAG	14000 fluorescence intensity (a.u.)
AAAATAATTTTGAAATGAGATATCACGTTCGCTGTGGATGCGGAGTCACCTAGTGCAG	12400 fluorescence intensity (a.u.)
AGGTTAATTTCTCCTCATCCTCCTTTGTTGAGCTCCAAGCCGGAGTCACCTAGTGCAG	17100 fluorescence intensity (a.u.)
AGTAGTTAATTAGAACACTGAATATATTAGCTGTGCTAAGCGGAGTCACCTAGTGCAG	14500 fluorescence intensity (a.u.)
TATATATTGACTACCCAGTTGCACTTTAAATTATGGATAGCGGAGTCACCTAGTGCAG	3860 fluorescence intensity (a.u.)
